According to PubChem BioAssay AID485364 (National Center for Advancing Translational Sciences (NCATS), 2010):
In all, about 360,000 compounds went through this assay and about 11,000 (3.1%) were called active. The inconclusive results got no clear call from the source; some entries with a clear call stand among them for comparison. The call rests on the fitted dose curve; in most records, active means well fitted inhibition curve with a large enough effect; inconclusive means small, poorly fitted or top-dose-only effect; inactive means no such curve, though single readings can be large or run the other way. Potencies of inconclusive entries are left out as doubtful fits.

molecular target: Schistosoma mansoni thioredoxin glutathione reductase (TGR) (UniProt Q962Y6); test: qHTS Assay for the Inhibitors of Schistosoma Mansoni Peroxiredoxins; settings: purified TGR, DTNB reduction, TNB absorbance 405 nm; series mostly up to 114 µM; further: nearly all actives have a fitted effect of over 60% in size
In short: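 Kinetic colorimetric format: TGR-catalysed, NADPH-driven DTNB reduction monitored via TNB absorbance. Enzyme dispensed at 20 nM; compound exposure 15 min at room temperature before reaction start.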
Potency means the concentration at half of the fitted maximal effect; tags describe the fitted curve by direction and shape.

Row | SMILES | Potency
1 | O=C(NCCc1c[nH]c2ccccc12)c1ccc(S(=O)(=O)NCc2ccco2)cc1 | inconclusive [inhibitor, partial curve]
2 | Fc1ccc(Br)cc1C1C=C(c2ccc(Br)s2)Nc2ncnn21 (centres undefined) | active: 1.26 µM
3 | CCN(CCNC(=O)C1CCN(Cc2nc(-c3ccc(Cl)cc3)oc2C)CC1)c1ccccc1 | inactive
4 | CN1C(=O)C(=Cc2ccc(Sc3ccccc3)o2)C(=O)N(C)C1=O | inconclusive [inhibitor, partial curve]
5 | Cc1c(NC(=O)Oc2ccccc2)sc(=S)n1C | inconclusive [inhibitor, partial curve]
6 | O=C(NCc1ccc2c(c1)OCO2)c1ccc2c(c1)N(Cc1c(F)cccc1Cl)C(=O)CS2 | inconclusive [inhibitor, single point]
7 | Cc1ccc(NC(=O)CSc2nnc(-c3ccoc3C)n2CCCN(C)C)cc1Cl | inactive
8 | NC(=O)CNC(=O)C1CCCc2c1[nH]c1ccc(Cl)cc21 (centres undefined) | inconclusive [inhibitor, partial curve]
9 | Cc1cc(/C=C2\C(=O)NC(=O)N(c3cccc(F)c3)C2=O)c(C)n1-c1ccc(C(=O)O)c(Cl)c1 | inconclusive [inhibitor, partial curve]
10 | Cc1occc1C(=O)N1CCCC(N2CCN(c3ccccc3F)CC2)C1 (centres undefined) | inconclusive [inhibitor, partial curve]
11 | C/C=C/C=C/C(=O)N1CC[C@]23c4ccccc4N[C@H]4N(C)c5cccc6c5[C@]42CCN([C@H]6C2OC2(C)C)[C@H]13 (some centres undefined) | inconclusive [inhibitor, partial curve]
12 | Oc1c(/C=N/c2ncn[nH]2)ccc2ccccc12 | active: 31.6 µM
13 | O=C(/C=C/c1ccco1)Nc1ccccc1N1CCCCC1 | active: 44.7 µM
14 | Nc1cccc2[nH]c(C(F)(F)F)nc12 | inconclusive [inhibitor, partial curve]
15 | N#Cc1nc(COc2ccc(Cl)cc2Cl)oc1N1CCN(c2ccccc2)CC1 | inconclusive [inhibitor, single point]
16 | Cc1ccc(C(CCN(Cc2ccccc2)C(=O)c2ccco2)c2ccco2)cc1 (centres undefined) | active: 20 µM
17 | CCC(=O)N1c2ccc(S(=O)(=O)CCC(=O)NC3CCCC3)cc2CC1C (centres undefined) | inconclusive [inhibitor, single point]
18 | CCCC(=O)N(C1CC(C)C(C#N)(C#N)C1(C#N)C#N)N(C)C (centres undefined) | active: 2 µM
19 | CCN(CC)P(=O)(Nc1ccccc1Br)c1ccc(N(C)C)cc1NC(=O)c1ccco1 (centres undefined) | inactive
